Article PMC4942575
Results are given in words; binding and its absence hold for the method and conditions named. In cells and extracts the contact can be indirect. Some results given as binding are weak or reduced against the parent protein; the word gives no strength. Where a sequence is shown, tags or fusion partners need not be part of it.

Protein sequences, listed by entry. Tags and fused reporters are not part of them.
UniProt Q39026: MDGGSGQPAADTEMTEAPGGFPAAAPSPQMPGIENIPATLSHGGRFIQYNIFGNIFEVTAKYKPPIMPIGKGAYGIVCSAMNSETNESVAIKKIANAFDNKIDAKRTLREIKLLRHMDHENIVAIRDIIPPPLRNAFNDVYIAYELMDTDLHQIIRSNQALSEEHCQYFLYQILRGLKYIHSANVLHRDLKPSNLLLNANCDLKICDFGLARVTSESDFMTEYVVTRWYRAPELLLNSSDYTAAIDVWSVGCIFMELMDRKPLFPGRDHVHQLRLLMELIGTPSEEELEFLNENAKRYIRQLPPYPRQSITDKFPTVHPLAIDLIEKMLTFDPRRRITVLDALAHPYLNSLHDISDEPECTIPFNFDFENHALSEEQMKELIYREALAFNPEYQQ

Experiments:
MKK4-GFP (Arabidopsis) [1] = target: T1, MKK4-GFP (Arabidopsis) (UniProt O80397); test: co-IP; as a7, protoplasts treated with 5 mM EGTA for 1 h before extraction
T1 sequence: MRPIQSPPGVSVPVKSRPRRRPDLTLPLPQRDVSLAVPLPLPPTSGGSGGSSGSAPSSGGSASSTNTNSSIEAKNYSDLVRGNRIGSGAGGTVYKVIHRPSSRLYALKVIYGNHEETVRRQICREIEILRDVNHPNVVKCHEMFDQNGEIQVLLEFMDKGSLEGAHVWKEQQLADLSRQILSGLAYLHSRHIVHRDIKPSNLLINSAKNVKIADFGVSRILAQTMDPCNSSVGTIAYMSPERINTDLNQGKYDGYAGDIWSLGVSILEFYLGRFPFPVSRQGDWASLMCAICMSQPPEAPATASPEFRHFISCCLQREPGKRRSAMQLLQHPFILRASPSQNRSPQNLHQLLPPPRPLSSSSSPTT

MKK5-GFP (Arabidopsis) [2] = target: T2, MKK5-GFP (Arabidopsis) (UniProt Q8RXG3); test: as above
T2 sequence: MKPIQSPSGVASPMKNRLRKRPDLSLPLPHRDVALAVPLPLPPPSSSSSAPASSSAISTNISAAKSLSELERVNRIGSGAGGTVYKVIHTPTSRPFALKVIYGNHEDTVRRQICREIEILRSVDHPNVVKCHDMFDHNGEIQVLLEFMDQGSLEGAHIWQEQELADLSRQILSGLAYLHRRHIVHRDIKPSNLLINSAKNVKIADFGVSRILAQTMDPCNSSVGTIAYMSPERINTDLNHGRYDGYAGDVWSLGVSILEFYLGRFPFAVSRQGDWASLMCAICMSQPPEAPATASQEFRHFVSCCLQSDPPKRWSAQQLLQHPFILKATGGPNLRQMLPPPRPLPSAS

MPK3-GFP (Arabidopsis) [3] = target: T3, MPK3-GFP (Arabidopsis) (UniProt Q39023); test: as above
T3 sequence: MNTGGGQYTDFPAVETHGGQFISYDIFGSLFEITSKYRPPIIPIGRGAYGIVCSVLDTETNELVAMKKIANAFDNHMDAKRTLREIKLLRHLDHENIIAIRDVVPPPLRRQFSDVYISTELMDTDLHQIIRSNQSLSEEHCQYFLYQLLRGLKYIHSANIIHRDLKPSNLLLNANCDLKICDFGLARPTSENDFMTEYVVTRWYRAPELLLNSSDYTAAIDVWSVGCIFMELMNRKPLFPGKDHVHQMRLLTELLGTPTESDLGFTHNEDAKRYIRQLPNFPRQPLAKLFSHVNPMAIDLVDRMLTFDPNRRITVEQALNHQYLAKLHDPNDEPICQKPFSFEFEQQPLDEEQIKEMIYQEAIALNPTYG

MPK6-GFP (Arabidopsis) [4] = target: MPK6-GFP (Arabidopsis) (UniProt Q39026); test: as above
MKK4-GFP (Arabidopsis) [5] = target: T1, MKK4-GFP (Arabidopsis); test: co-IP; as a7, protoplasts treated with 10 μg ml^-1 R18 peptide for 1 h before extraction
MKK5-GFP (Arabidopsis) [6] = target: T2, MKK5-GFP (Arabidopsis); test: as above
MPK3-GFP (Arabidopsis) [7] = target: T3, MPK3-GFP (Arabidopsis); test: as above
MPK6-GFP (Arabidopsis) [8] = target: MPK6-GFP (Arabidopsis) (UniProt Q39026); test: as above
MKK4-GFP (Arabidopsis) [9] = target: T1, MKK4-GFP (Arabidopsis); test: co-IP; Arabidopsis protoplasts (wild type and cas-1) co-transfected with MPK3/MPK6-GFP or MKK4/MKK5-GFP and 14-3-3ω-FLAG; untreated, 1 mM CaCl2 for 1 h, or Lin and NF treatment; anti-GFP beads, anti-FLAG immunoblot
MKK5-GFP (Arabidopsis) [10] = target: T2, MKK5-GFP (Arabidopsis); test: as above
MPK3-GFP (Arabidopsis) [11] = target: T3, MPK3-GFP (Arabidopsis); test: as above
MPK6-GFP (Arabidopsis) [12] = target: MPK6-GFP (Arabidopsis) (UniProt Q39026); test: as above

B1: 14-3-3ω-FLAG (protein, UniProt Q01525 1-259)
chain: MASGREEFVYMAKLAEQAERYEEMVEFMEKVSAAVDGDELTVEERNLLSVAYKNVIGARRASWRIISSIEQKEESRGNDDHVTAIREYRSKIETELSGICDGILKLLDSRLIPAAASGDSKVFYLKMKGDYHRYLAEFKTGQERKDAAEHTLAAYKSAQDIANAELAPTHPIRLGLALNFSVFYYEILNSPDRACNLAKQAFDEAIAELDTLGEESYKDSTLIMQLLRDNLTLWTSDMQDDAADEIKEAAAPKPTEEQQ
For B1, the binding (MKK4-GFP (Arabidopsis) [1]) was “no binding (condition: with 5 mM EGTA)”, the binding (MKK5-GFP (Arabidopsis) [2]) was “no binding (condition: with 5 mM EGTA)” and the binding (MPK3-GFP (Arabidopsis) [3]) was “no binding (condition: with 5 mM EGTA)”. For the same binder, the binding (MPK6-GFP (Arabidopsis) [4]) was “no binding (condition: with 5 mM EGTA)”, the binding (MKK4-GFP (Arabidopsis) [5]) was “no binding (condition: with 10 μg ml^-1 R18 peptide)” and the binding (MKK5-GFP (Arabidopsis) [6]) was “no binding (condition: with 10 μg ml^-1 R18 peptide)”. For the same binder, the binding (MPK3-GFP (Arabidopsis) [7]) was “no binding (condition: with 10 μg ml^-1 R18 peptide)”, the binding (MPK6-GFP (Arabidopsis) [8]) was “no binding (condition: with 10 μg ml^-1 R18 peptide)” and the binding (MKK4-GFP (Arabidopsis) [9]) was “binds”. For the same binder, the binding (MKK5-GFP (Arabidopsis) [10]) was “binds”, the binding (MPK3-GFP (Arabidopsis) [11]) was “binds” and the binding (MPK6-GFP (Arabidopsis) [12]) was “binds”.
